{
  "source": "PubChem BioAssay AID485294",
  "about": "(National Center for Advancing Translational Sciences (NCATS), 2010)",
  "note": "The campaign covered roughly 370,000 compounds. About 150 (0.041%) were called active. The inconclusive results got no clear call from the source; some entries with a clear call stand among them for comparison. Calls come from the whole dose curve; as a rule, active = well fitted inhibition curve with a large enough effect; inconclusive = small, poorly fitted or top-dose-only effect; inactive = flat fitted curve, though single readings scatter. No potency is given beside an inconclusive call; the fits are too rough. Potency is the fitted concentration of half-maximal effect; tags give direction and shape of the fitted curve.",
  "data": [
    {"target": "Beta-lactamase (Escherichia coli (strain K12)) (UniProt P00811)", "sequence (P00811 whole entry, looked up)": "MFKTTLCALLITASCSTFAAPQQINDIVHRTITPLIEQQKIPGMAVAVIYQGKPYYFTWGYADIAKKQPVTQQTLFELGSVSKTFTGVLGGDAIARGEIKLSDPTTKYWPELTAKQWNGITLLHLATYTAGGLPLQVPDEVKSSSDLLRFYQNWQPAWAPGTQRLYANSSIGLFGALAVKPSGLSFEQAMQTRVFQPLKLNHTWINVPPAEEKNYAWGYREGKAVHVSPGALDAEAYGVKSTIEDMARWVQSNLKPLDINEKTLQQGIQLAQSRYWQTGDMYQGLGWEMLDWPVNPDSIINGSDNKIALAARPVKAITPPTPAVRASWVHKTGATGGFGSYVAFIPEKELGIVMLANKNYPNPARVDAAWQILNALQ", "test": "qHTS Inhibitors of AmpC Beta-Lactamase (assay with detergent); note: nearly all actives have a fitted effect of over 25% in size;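 for activity change, negative = inhibition: 0% = no-compound wells and -100% = no-enzyme wells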", "details": "AmpC hydrolysis of nitrocefin, absorbance 480 nm, 0.01% Triton; activity change, negative = inhibition: at 114 µM (top of the series)", "method_in_brief": "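AmpC (5.3 nM in the dispensed reagent) in 20 mM phosphate pH 7.0 with 0.01% (detergent screen) or 0.0001% Triton X-100 was preincubated with compounds for 15 min at room temperature. Nitrocefin was then added from an 800 uM solution, and hydrolysis was followed at 480 nm.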", "values": [
      {"smiles": "COc1ccccc1C1C(C(C)=O)=C(O)C(=O)N1CCc1ccccc1", "note": "(centres undefined)", "Potency": "inconclusive [inhibitor, full curve, poor fit]"},
      {"smiles": "COc1ccc(C(=O)Oc2cc(C(=S)N3CCOCC3)ccc2OC)cc1", "Potency": "inconclusive [inhibitor, partial curve]"},
      {"smiles": "COc1cc2ccccc2cc1C(=O)Nc1ccc(N2CCOCC2)cc1", "Potency": "inconclusive [inhibitor, full curve, poor fit]"},
      {"smiles": "O=C(Nc1ccncc1)C1CCCN(S(=O)(=O)c2cccc3cccnc23)C1", "note": "(centres undefined)", "Potency": "inconclusive [inhibitor, full curve, poor fit]"},
      {"smiles": "COc1cccc(CNC(=O)C2CCN(Cc3cc4ccccc4n3Cc3ccccc3)CC2)c1OC", "activity change, negative = inhibition": "inactive: 9.68%"},
      {"smiles": "CC1=CCC2C(=O)N(CCc3c[nH]c4ccccc34)C(=O)C2C1", "note": "(centres undefined)", "Potency": "inconclusive [inhibitor, full curve, poor fit]"},
      {"smiles": "O=C(/C=C/NCc1ccc(F)cc1)c1ccccc1", "Potency": "inconclusive [inhibitor, full curve]"},
      {"smiles": "O=C1CCCN2N=C(SCC(=O)Nc3ccc(OC(F)(F)F)cc3)SC2=N1", "Potency": "inconclusive [inhibitor, full curve, poor fit]"},
      {"smiles": "O=C(O)c1cc(S(=O)(=O)Nc2ccc3c(c2)OCCO3)c(Cl)cc1Cl", "Potency": "inconclusive [inhibitor, full curve, poor fit]"},
      {"smiles": "CCOC(=O)c1c(NC(=O)CC)sc2c1CCN(Cc1ccccc1)C2", "activity change, negative = inhibition": "inactive: -4.01%"},
      {"smiles": "CCOC(=O)c1cc(-c2ccc(N3CCOCC3)cc2)nn1-c1ccc(F)cc1F", "Potency": "inconclusive [inhibitor, partial curve, poor fit]"},
      {"smiles": "Cc1nnc2c3ccccc3nc(Nc3ccccc3C(=O)O)n12", "activity change, negative = inhibition": "inactive: 5.5%"},
      {"smiles": "CC1CCN(S(=O)(=O)c2ccc(NC(=O)Cc3cccs3)cc2)CC1", "Potency": "inconclusive [inhibitor, single point]"},
      {"smiles": "COC(=O)c1ccccc1N/C=C/C(=O)c1ccc(Br)cc1", "Potency": "inconclusive [inhibitor, full curve, poor fit]"},
      {"smiles": "CS(=O)(=O)c1ccc(C(=O)OCC(=O)NC(=O)Cc2ccccc2)cc1", "Potency": "inconclusive [inhibitor, full curve, poor fit]"},
      {"smiles": "c1coc(-c2ccc3ncnc(NCc4cccs4)c3c2)c1", "activity change, negative = inhibition": "inactive: -19.8%"},
      {"smiles": "Cn1c(SCC(=O)Nc2cccc3ccccc23)nc(O)cc1=O", "Potency": "inconclusive [inhibitor, partial curve]"},
      {"smiles": "O=C(OCC(=O)N1CCCc2ccccc21)c1cnc(Cl)c(Cl)c1", "activity change, negative = inhibition": "inactive: 1.61%"},
      {"smiles": "O=C(Nc1ccc(NC(=O)c2cccs2)cc1)c1cccnc1", "Potency": "inconclusive [inhibitor, partial curve]"},
      {"smiles": "Cc1c(C(=O)N2CCc3ccccc3C2)sc2nc(-c3ccccc3)cn12", "activity change, negative = inhibition": "inactive: 6.47%"},
      {"smiles": "CN1CCc2c(sc3c2c(=O)n(-c2ccccc2)c2nnc(SCc4ccccc4)n32)C1", "Potency": "inconclusive [inhibitor, single point]"},
      {"smiles": "Cc1ccc(S(=O)(=O)c2nnn3c2nc(N2CCCC(C)C2)c2cc(Cl)ccc23)cc1C", "note": "(centres undefined)", "activity change, negative = inhibition": "inactive: 2.8%"},
      {"smiles": "Cc1ccc(-n2c(=O)c3c(C)c(C)sc3n(Cc3cc(=O)n4ccccc4n3)c2=O)cc1C", "Potency": "inconclusive [inhibitor, full curve, poor fit]"},
      {"smiles": "COc1cccc(NC(=O)C(Sc2nnc3ccccn23)c2ccccc2)c1", "note": "(centres undefined)", "Potency": "inconclusive [inhibitor, partial curve, poor fit]"},
      {"smiles": "O=S(=O)(NNc1ccc(F)cc1F)c1cccc(Cl)c1", "Potency": "inconclusive [inhibitor, full curve]"},
      {"smiles": "O=C(COC(=O)c1ccc(Br)cc1)NC1CCCC1", "Potency": "inconclusive [inhibitor, full curve, poor fit]"},
      {"smiles": "COCCCNC(=O)/C(C#N)=C1\\N=C(NC(=O)c2cccs2)c2ccccc21", "activity change, negative = inhibition": "inactive: 4.57%"},
      {"smiles": "C/C(=N\\NC(=O)CCn1nnc2ccccc21)c1ccco1", "Potency": "inconclusive [inhibitor, single point]"},
      {"smiles": "O=c1[nH]c(SCc2ccccc2)nc2[nH]ncc12", "activity change, negative = inhibition": "inactive: 7.94%"},
      {"smiles": "COc1ccc(COC(=O)c2ccc(S(=O)(=O)N3CCC(C)CC3)cc2)cc1", "activity change, negative = inhibition": "inactive: -13.1%"},
      {"smiles": "c1ccc2c(SCc3cn4cccnc4n3)ncnc2c1", "Potency": "inconclusive [inhibitor, full curve, poor fit]"},
      {"smiles": "O=C1S/C(=C\\c2ccccn2)C(=O)N1Cc1ccccc1F", "Potency": "inconclusive [inhibitor, partial curve, poor fit]"},
      {"smiles": "CC(=O)N(C)c1ccc(NC(=S)NC(=O)/C=C/c2ccco2)cc1", "activity change, negative = inhibition": "inactive: 3.95%"},
      {"smiles": "COC(=O)c1ccc(Sc2ccc(C)cc2)c(N)c1", "activity change, negative = inhibition": "inactive: -1.05%"},
      {"smiles": "CCN(c1cccc(C)c1)S(=O)(=O)c1cccc2nsnc12", "Potency": "inconclusive [inhibitor, full curve, poor fit]"},
      {"smiles": "O=C(CN1CCC(n2nnc3cc(F)ccc32)CC1)NC1CCCCC1", "Potency": "inconclusive [inhibitor, partial curve]"},
      {"smiles": "CC(=O)N(c1ccc(Cl)cc1)c1c[nH]c2ccccc12", "Potency": "inconclusive [inhibitor, full curve, poor fit]"},
      {"smiles": "O=C(c1cccc(F)c1)N1CCN(c2cccc(Cl)c2)CC1", "activity change, negative = inhibition": "inactive: 2.49%"},
      {"smiles": "CCCCc1nc2cc(C(=O)N(C)C(C)c3ccccn3)ccc2o1", "note": "(centres undefined)", "Potency": "inconclusive [inhibitor, partial curve, poor fit]"},
      {"smiles": "COc1ccc(S(=O)(=O)NCCSCc2ccco2)cc1Cl", "Potency": "inconclusive [inhibitor, full curve]"},
      {"smiles": "S=c1[nH]nc(-c2ccccc2)n1/N=C/c1c[nH]c2ccccc12", "Potency": "inconclusive [inhibitor, single point]"},
      {"smiles": "O=C(COC(=O)Cc1ccc(Br)cc1)NCc1ccc(F)cc1", "Potency": "inconclusive [inhibitor, partial curve, poor fit]"},
      {"smiles": "COc1ccccc1NC(=O)Cn1nc2c3cc(F)ccc3n(Cc3cccc(C)c3)cc-2c1=O", "activity change, negative = inhibition": "inactive: 14.6%"},
      {"smiles": "COC(=O)c1ccc(NC(=O)C(=O)c2cccn2C)cc1", "Potency": "inconclusive [inhibitor, partial curve, poor fit]"}
    ]}
  ]
}
